Earlier results in patent US12622896B2, “Antiviral compounds, compositions and methods of use” (THE UNIVERSITY OF BRITISH COLUMBIA, priority 2019, dated 2026).

Test system: clinical isolate (11845 INI)
Settings: cited from earlier work

In the case of `C[C@@H]1CCO[C@H]2Cn3cc(C(=O)NCc4ccc(F)cc4F)c(=O)c(O)c3C(=O)N12` [Dolutegravir], the “reduction of susceptibility by G140S and Q148H substitutions” value is given as “up to 10 fold”.
